From the supplement of paper PMC9151546
Single values are uncertain, as repeats are few or missing.

Experiments:
CHO-K1 [1] = test: micronucleus frequency (% of nucleated events); higher = more micronuclei (genotoxic)
CHO-K1 [2] = test: hypodiploid nuclei frequency (% of nucleated events); higher = more hypodiploid events (aneugenic)
CHO-K1 [3] = test: relative survival (nuclei to bead ratio vs DMSO control) (% of vehicle control); higher = more surviving cells
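Throughout, for hypodiploid nuclei frequency (% of nucleated events): hypodiploid nuclei gated on a flow cytometer with 488 nm excitation after SYTOX Green staining, cultures at 37 °C, positive controls vinblastine without S9 and cyclophosphamide with S9.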
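Throughout, for micronucleus frequency (% of nucleated events): cells lysed with nuclei stained by SYTOX Green, then micronucleus-gated events counted against nucleated events by flow cytometry with 488 nm excitation.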
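Throughout, for relative survival (nuclei to bead ratio vs DMSO control): Lysed-cell nuclei stained with SYTOX Green and counted against counting beads by flow cytometry at 488 nm excitation, with vinblastine (no S9) and cyclophosphamide (plus S9) as positive controls.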

O=P(OCCCl)(OCCCl)OCCCl [Tris(2-chloroethyl) phosphate]
Conditions	hypodiploid nuclei frequency, CHO-K1 [2] [%]	micronucleus frequency, CHO-K1 [1] [%]	relative survival, CHO-K1 [3]
concentration: 4.5 (µM), S9 metabolic activation: with S9, exposure time: 3-4 hours	0.3	1.98	141
concentration: 4.5 (µM), S9 metabolic activation: without S9, exposure time: 24 hours	0.48	1.8	80.3
concentration: 5.63 (µM), S9 metabolic activation: with S9, exposure time: 3-4 hours	0.2	1.16	128
concentration: 5.63 (µM), S9 metabolic activation: without S9, exposure time: 24 hours	0.6	2.32	82.6
concentration: 7.04 (µM), S9 metabolic activation: with S9, exposure time: 3-4 hours	0.26	1.3	133
concentration: 7.04 (µM), S9 metabolic activation: without S9, exposure time: 24 hours	0.64	1.66	96.3
concentration: 8.8 (µM), S9 metabolic activation: with S9, exposure time: 3-4 hours	0.18	1.28	121
concentration: 8.8 (µM), S9 metabolic activation: without S9, exposure time: 24 hours	0.66	1.56	80
concentration: 11 (µM), S9 metabolic activation: with S9, exposure time: 3-4 hours	0.14	1.46	124
concentration: 11 (µM), S9 metabolic activation: without S9, exposure time: 24 hours	0.62	1.6	111
concentration: 13.7 (µM), S9 metabolic activation: with S9, exposure time: 3-4 hours	0.18	1.3	141
concentration: 13.7 (µM), S9 metabolic activation: without S9, exposure time: 24 hours	0.46	1.48	86.6
concentration: 17.2 (µM), S9 metabolic activation: with S9, exposure time: 3-4 hours	0.28	0.92	120
concentration: 17.2 (µM), S9 metabolic activation: without S9, exposure time: 24 hours	0.56	1.2	85.8
concentration: 21.5 (µM), S9 metabolic activation: with S9, exposure time: 3-4 hours	0.38	1.54	139
concentration: 21.5 (µM), S9 metabolic activation: without S9, exposure time: 24 hours	0.56	1.6	63.5
concentration: 26.8 (µM), S9 metabolic activation: with S9, exposure time: 3-4 hours	0.34	1.46	132
concentration: 26.8 (µM), S9 metabolic activation: without S9, exposure time: 24 hours	0.52	2.76	71.6
concentration: 33.6 (µM), S9 metabolic activation: with S9, exposure time: 3-4 hours	0.2	1.42	110
concentration: 33.6 (µM), S9 metabolic activation: without S9, exposure time: 24 hours	0.6	1.88	45.2
concentration: 41.9 (µM), S9 metabolic activation: with S9, exposure time: 3-4 hours	0.2	0.98	116
concentration: 41.9 (µM), S9 metabolic activation: without S9, exposure time: 24 hours	0.96	2.2	60.1
concentration: 52.4 (µM), S9 metabolic activation: with S9, exposure time: 3-4 hours	0.16	0.82	90.9
concentration: 52.4 (µM), S9 metabolic activation: without S9, exposure time: 24 hours	0.4	1.36	56.5
concentration: 65.5 (µM), S9 metabolic activation: with S9, exposure time: 3-4 hours	0.18	1.2	81.3
concentration: 65.5 (µM), S9 metabolic activation: without S9, exposure time: 24 hours	0.52	1.88	46.9
concentration: 81.9 (µM), S9 metabolic activation: with S9, exposure time: 3-4 hours	0.24	1.26	101
concentration: 81.9 (µM), S9 metabolic activation: without S9, exposure time: 24 hours	0.88	1.54	54.5
concentration: 102 (µM), S9 metabolic activation: with S9, exposure time: 3-4 hours	0.32	0.76	88.2
concentration: 102 (µM), S9 metabolic activation: without S9, exposure time: 24 hours	0.68	1.72	71.1
concentration: 128 (µM), S9 metabolic activation: with S9, exposure time: 3-4 hours	0.18	0.92	75.3
concentration: 128 (µM), S9 metabolic activation: without S9, exposure time: 24 hours	0.82	2.26	50
concentration: 160 (µM), S9 metabolic activation: with S9, exposure time: 3-4 hours	0.12	1.24	80.4
concentration: 160 (µM), S9 metabolic activation: without S9, exposure time: 24 hours	0.9	2.06	40.8
concentration: 200 (µM), S9 metabolic activation: with S9, exposure time: 3-4 hours	0.22	0.7	77.4
concentration: 200 (µM), S9 metabolic activation: without S9, exposure time: 24 hours	1.22	1.78	42.6

Cc1c(C)c2c(c(C)c1O)CCC(C)(COc1ccc(CC3SC(=O)NC3=O)cc1)O2 (stereo not given) [Troglitazone]
Conditions	hypodiploid nuclei frequency, CHO-K1 [2] [%]	micronucleus frequency, CHO-K1 [1] [%]	relative survival, CHO-K1 [3]
concentration: 4.5 (µM), S9 metabolic activation: with S9, exposure time: 3-4 hours	0.34	1.54	135
concentration: 4.5 (µM), S9 metabolic activation: without S9, exposure time: 24 hours	0.66	2.36	121
concentration: 5.63 (µM), S9 metabolic activation: with S9, exposure time: 3-4 hours	0.3	1.92	155
concentration: 5.63 (µM), S9 metabolic activation: without S9, exposure time: 24 hours	0.32	2.18	132
concentration: 7.04 (µM), S9 metabolic activation: with S9, exposure time: 3-4 hours	0.34	1.52	136
concentration: 7.04 (µM), S9 metabolic activation: without S9, exposure time: 24 hours	0.6	1.58	113
concentration: 8.8 (µM), S9 metabolic activation: with S9, exposure time: 3-4 hours	0.34	1.58	125
concentration: 8.8 (µM), S9 metabolic activation: without S9, exposure time: 24 hours	0.7	2.22	112
concentration: 11 (µM), S9 metabolic activation: with S9, exposure time: 3-4 hours	0.1	1.56	134
concentration: 11 (µM), S9 metabolic activation: without S9, exposure time: 24 hours	0.6	2.4	120
concentration: 13.7 (µM), S9 metabolic activation: with S9, exposure time: 3-4 hours	0.2	2.22	134
concentration: 13.7 (µM), S9 metabolic activation: without S9, exposure time: 24 hours	0.78	1.88	104
concentration: 17.2 (µM), S9 metabolic activation: with S9, exposure time: 3-4 hours	0.28	1.52	121
concentration: 17.2 (µM), S9 metabolic activation: without S9, exposure time: 24 hours	0.82	2.88	95.1
concentration: 21.5 (µM), S9 metabolic activation: with S9, exposure time: 3-4 hours	0.2	1.48	127
concentration: 21.5 (µM), S9 metabolic activation: without S9, exposure time: 24 hours	0.98	3.7	91.8
concentration: 26.8 (µM), S9 metabolic activation: with S9, exposure time: 3-4 hours	0.16	1.84	125
concentration: 26.8 (µM), S9 metabolic activation: without S9, exposure time: 24 hours	0.98	2.96	79.7
concentration: 33.6 (µM), S9 metabolic activation: with S9, exposure time: 3-4 hours	0.52	2.58	127
concentration: 33.6 (µM), S9 metabolic activation: without S9, exposure time: 24 hours	1.22	2.88	76
concentration: 41.9 (µM), S9 metabolic activation: with S9, exposure time: 3-4 hours	0.34	1.56	114
concentration: 41.9 (µM), S9 metabolic activation: without S9, exposure time: 24 hours	1.06	2.7	76.5
concentration: 52.4 (µM), S9 metabolic activation: with S9, exposure time: 3-4 hours	0.36	1.96	137
concentration: 52.4 (µM), S9 metabolic activation: without S9, exposure time: 24 hours	1.14	2.82	66.2
concentration: 65.5 (µM), S9 metabolic activation: with S9, exposure time: 3-4 hours	0.28	1.92	113
concentration: 65.5 (µM), S9 metabolic activation: without S9, exposure time: 24 hours	1.34	3.68	65.6
concentration: 81.9 (µM), S9 metabolic activation: with S9, exposure time: 3-4 hours	0.32	2.4	115
concentration: 81.9 (µM), S9 metabolic activation: without S9, exposure time: 24 hours	1.06	3.62	62
concentration: 102 (µM), S9 metabolic activation: with S9, exposure time: 3-4 hours	–	–	36.1
concentration: 102 (µM), S9 metabolic activation: without S9, exposure time: 24 hours	0.84	2.18	57.9
concentration: 128 (µM), S9 metabolic activation: with S9, exposure time: 3-4 hours	–	–	13
concentration: 128 (µM), S9 metabolic activation: without S9, exposure time: 24 hours	0.92	2.36	47.1
concentration: 160 (µM), S9 metabolic activation: without S9, exposure time: 24 hours	1.06	2.28	41.4
concentration: 200 (µM), S9 metabolic activation: with S9, exposure time: 3-4 hours	–	–	0.2
concentration: 200 (µM), S9 metabolic activation: without S9, exposure time: 24 hours	–	–	33.9
